Test results from the GPR68 mutational scans of Howard et al. (2025).

B1: GPR68, Q15743 (parent)
chain: MGNITADNSSMSCTIDHTIHQTLAPVVYVTVLVVGFPANCLSLYFGYLQIKARNELGVYLCNLTVADLFYICSLPFWLQYVLQHDNWSHGDLSCQVCGILLYENIYISVGFLCCISVDRYLAVAHPFRFHQFRTLKAAVGVSVVIWAKELLTSIYFLMHEEVIEDENQHRVCFEHYPIQAWQRAINYYRFLVGFLFPICLLLASYQGILRAVRRSHGTQKSRKDQIQRLVLSTVVIFLACFLPYHVLLLVRSVWEASCDFAKGVFNAYHFSLLLTSFNCVADPVLYCFVSETTHRDLARLRGACLAFLTCSRTGRAREAYPLGAPEASGKSGAQGEEPELLTKLHPAFQTPNSPGSGGFPTGRLA

Assays:
[1] = variants of: B1; assay: cAMP reporter score (Enrich2 score, wild type = 0); higher = more signal; HEK293T, FACS bins
[2] = variants of: B1; assay: surface expression score (Enrich2 score, wild type = 0); higher = more signal; HEK293T, FACS bins

Variant | cAMP reporter score ([1]; pH 5.5) | cAMP reporter score ([1]; pH 6) | cAMP reporter score ([1]; pH 6, modulator: ogerin) | cAMP reporter score ([1]; pH 6.5, modulator: ogerin) | surface expression score [2]
MGNITADNSSMSCTIDHTIHQTLAPVVYVTVLVKGFPANCLSLYFGYLQIKARNELGVYLCNLTVADLFYICSLPFWLQYVLQHDNWSHGDLSCQVCGILLYENIYISVGFLCCISVDRYLAVAHPFRFHQFRTLKAAVGVSVVIWAKELLTSIYFLMHEEVIEDENQHRVCFEHYPIQAWQRAINYYRFLVGFLFPICLLLASYQGILRAVRRSHGTQKSRKDQIQRLVLSTVVIFLACFLPYHVLLLVRSVWEASCDFAKGVFNAYHFSLLLTSFNCVADPVLYCFVSETTHRDLARLRGACLAFLTCSRTGRAREAYPLGAPEASGKSGAQGEEPELLTKLHPAFQTPNSPGSGGFPTGRLA [V34K] | -0.803 | -1.07 | -1.65 | -0.646 | -2.67
MGNITADNSSMSCTIDHTIHQTLAPVVYVTVLVLGFPANCLSLYFGYLQIKARNELGVYLCNLTVADLFYICSLPFWLQYVLQHDNWSHGDLSCQVCGILLYENIYISVGFLCCISVDRYLAVAHPFRFHQFRTLKAAVGVSVVIWAKELLTSIYFLMHEEVIEDENQHRVCFEHYPIQAWQRAINYYRFLVGFLFPICLLLASYQGILRAVRRSHGTQKSRKDQIQRLVLSTVVIFLACFLPYHVLLLVRSVWEASCDFAKGVFNAYHFSLLLTSFNCVADPVLYCFVSETTHRDLARLRGACLAFLTCSRTGRAREAYPLGAPEASGKSGAQGEEPELLTKLHPAFQTPNSPGSGGFPTGRLA [V34L] | -0.582 | -0.081 | -0.462 | -0.446 | -0.231
MGNITADNSSMSCTIDHTIHQTLAPVVYVTVLVMGFPANCLSLYFGYLQIKARNELGVYLCNLTVADLFYICSLPFWLQYVLQHDNWSHGDLSCQVCGILLYENIYISVGFLCCISVDRYLAVAHPFRFHQFRTLKAAVGVSVVIWAKELLTSIYFLMHEEVIEDENQHRVCFEHYPIQAWQRAINYYRFLVGFLFPICLLLASYQGILRAVRRSHGTQKSRKDQIQRLVLSTVVIFLACFLPYHVLLLVRSVWEASCDFAKGVFNAYHFSLLLTSFNCVADPVLYCFVSETTHRDLARLRGACLAFLTCSRTGRAREAYPLGAPEASGKSGAQGEEPELLTKLHPAFQTPNSPGSGGFPTGRLA [V34M] | -0.195 | 0.116 | -0.216 | 0.278 | -1.42
MGNITADNSSMSCTIDHTIHQTLAPVVYVTVLVIGFPANCLSLYFGYLQIKARNELGVYLCNLTVADLFYICSLPFWLQYVLQHDNWSHGDLSCQVCGILLYENIYISVGFLCCISVDRYLAVAHPFRFHQFRTLKAAVGVSVVIWAKELLTSIYFLMHEEVIEDENQHRVCFEHYPIQAWQRAINYYRFLVGFLFPICLLLASYQGILRAVRRSHGTQKSRKDQIQRLVLSTVVIFLACFLPYHVLLLVRSVWEASCDFAKGVFNAYHFSLLLTSFNCVADPVLYCFVSETTHRDLARLRGACLAFLTCSRTGRAREAYPLGAPEASGKSGAQGEEPELLTKLHPAFQTPNSPGSGGFPTGRLA [V34I] | 0.924 | -0.152 | 0.499 | 1.3 | 1.71

Scores with a large standard error are left out. The source holds two more conditions with little spread; they are left out. Read del as a deletion of the residues named and ins as an insertion between two positions. For some assays here: How much ogerin was present is not stated here.
